# The list shows a part of the results. Values were computed here from the reads of four pooled replicates and scatter widely.
# Biological target: T1, Pho4 (S. cerevisiae) (UniProt P07270)
# T1 sequence: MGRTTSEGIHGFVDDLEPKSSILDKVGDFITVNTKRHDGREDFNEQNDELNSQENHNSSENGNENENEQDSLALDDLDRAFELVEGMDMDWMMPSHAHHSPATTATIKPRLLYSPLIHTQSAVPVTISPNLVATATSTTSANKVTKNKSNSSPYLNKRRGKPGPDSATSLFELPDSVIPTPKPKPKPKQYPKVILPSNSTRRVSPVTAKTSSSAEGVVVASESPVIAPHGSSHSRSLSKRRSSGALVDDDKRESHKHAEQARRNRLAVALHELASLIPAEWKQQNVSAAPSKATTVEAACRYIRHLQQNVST
# Assay: relative binding free energy (BET-seq); higher = weaker binding
# Settings: reference: library average
row,Sequence,relative binding free energy [kcal/mol]
1,ATTAGCACGTGTGAAT,-0.11
2,TTAAGCACGTGTGTTG,-0.1
3,TGGCTCACGTGTGGAT,0.16
4,CTTGCCACGTGTTTTG,-0.02
5,TAATTCACGTGCGTAT,0.15
6,AGGGTCACGTGATACG,0.1
7,AAAGGCACGTGGGGCG,-0.16
8,CGGTTCACGTGGTTAC,0.3
9,GGGGGCACGTGTAATT,0.06
10,TATGGCACGTGTAGTT,-0.11
11,AGTAACACGTGGAAGG,-0.11
12,GGGTACACGTGCTAGT,0.02
13,ATGCTCACGTGTATGG,0.26
14,ATTGTCACGTGGGCAG,-0.04
15,GGTTGCACGTGGCTAA,-0.1
16,TGTTGCACGTGGCGAA,-0.1
17,AAGGCCACGTGGAGGG,-0.12
18,ATAACCACGTGGTGTG,-0.19
19,GTGTCCACGTGTCGGG,0.12
20,CAGCGCACGTGTTTGT,-0.04
21,GGCGGCACGTGATAGG,0.08
22,ATGTTCACGTGGCATT,0.23
23,AATGACACGTGTGCTG,0.03

row,Sequence,relative binding free energy [kcal/mol]
1,TAAGGCACGTGCTTTT,-0.19
2,AGCGTCACGTGGATCG,0.23
3,AGGGACACGTGGGATA,0.01
4,TTGCGCACGTGGGTAT,-0.31
5,GGCTGCACGTGGTGTC,-0.01
6,TTTTACACGTGTTGAA,0.15
7,GGGTTCACGTGCTCAG,0.24
8,TAAGTCACGTGAGCTT,0.22
9,TGAGTCACGTGACTCG,0.39
10,GTTGGCACGTGGCGCT,-0.26
11,TTATGCACGTGAAAAG,0.17
12,AGGGGCACGTGGGGTT,-0.19
13,GGAGGCACGTGATGAA,-0.02
14,CAGGACACGTGTTTGG,-0.07
15,TGGGGCACGTGGGAGC,-0.26
16,TATTACACGTGTAATT,0.25
17,GTGATCACGTGTCTAT,0.19
18,GATGACACGTGTGAGG,0.08
19,GCGTGCACGTGTAGGA,0.03
20,TTGTACACGTGCGTGA,-0.11
21,TAGAGCACGTGGTGCC,-0.08
22,GGTAACACGTGGTGAG,-0.05
23,TAGGACACGTGGTGGC,-0.11

row,Sequence,relative binding free energy [kcal/mol]
1,GTATACACGTGTATTT,0.03
2,TTGGCCACGTGAATGT,0.31
3,TGTTGCACGTGTAGCC,0.11
4,TGCTGCACGTGGTTGT,-0.05
5,GGAGTCACGTGGTAGG,0.03
6,TGGTTCACGTGATACA,0.3
7,CCAGGCACGTGGGGGA,-0.3
8,GTATGCACGTGCGAGG,-0.05
9,AAGATCACGTGGGTTG,0.01
10,TTCAACACGTGATGAG,0.27
11,TGCAGCACGTGGTGGC,-0.15
12,GGTACCACGTGGGTAG,-0.05
13,CGAGACACGTGAGGGT,0.06
14,AGTGTCACGTGGCCGG,-0.11
15,TGGCTCACGTGTGGCG,0.17
16,GTCTTCACGTGGTTGA,0.31
17,AGCAACACGTGGGGTT,-0.08
18,TTACTCACGTGGGCGG,0.24
19,AGTGGCACGTGTGTGG,-0.06
20,CGGGGCACGTGAGGTT,0.17
21,CTTTTCACGTGTTGAG,0.21
22,AAAGGCACGTGATGTT,0.04
23,GAGCTCACGTGGTTTG,0.16

row,Sequence,relative binding free energy [kcal/mol]
1,TGGAGCACGTGGTTCG,-0.08
2,AGTGTCACGTGTGGCA,0.08
3,TGGCTCACGTGGTACG,0.27
4,TTTTCCACGTGTTCAG,0.13
5,TCGGACACGTGAATGT,0.33
6,CTAGTCACGTGGCGGT,-0.02
7,GTTGACACGTGGATCG,0.07
8,TGCGACACGTGTAGTG,-0.04
9,TTTCACACGTGATGTG,0.2
10,TGCTTCACGTGAGCGG,0.21
11,GTTGTCACGTGGCTCG,0.23
12,AGGGCCACGTGGTGGT,-0.17
13,GGAGGCACGTGAACGT,0.21
14,TCTTGCACGTGTGTCG,0.01
15,GAGGACACGTGGCTTG,-0.02
16,AGGCTCACGTGGGTTT,0.14
17,GGAGGCACGTGTCAAG,0.01
18,GAGAGCACGTGGTGAA,-0.03
19,TGTGCCACGTGTAGGT,-0.07
20,TTGCTCACGTGATAAG,0.3
21,GTCTGCACGTGCGGTG,0.02
22,TTAGGCACGTGAACTG,0.17
23,TTATACACGTGGTGCA,-0.09

row,Sequence,relative binding free energy [kcal/mol]
1,CGGAACACGTGGTGTG,-0.14
2,TAGTTCACGTGAGGCA,0.38
3,TGGCTCACGTGGTGGG,0.19
4,ATATGCACGTGGGTGA,-0.11
5,GTAATCACGTGGTGAT,0.07
6,AGTTTCACGTGAGCGA,0.37
7,GGGTTCACGTGACTAG,0.41
8,ATTGACACGTGGTATT,-0.14
9,ATGCACACGTGGGTTA,-0.13
10,GTAAGCACGTGGTCGA,-0.06
11,CTAGTCACGTGGGACG,0.09
12,TTTCTCACGTGGGTGC,0.14
13,AAGTGCACGTGTGGGT,-0.01
14,CATTTCACGTGATGTT,0.29
15,ATCTTCACGTGAGAGG,0.35
16,GCTTGCACGTGAGTTG,0.21
17,TGAAACACGTGAGGGT,0.28
18,AAATGCACGTGAAGTA,0.32
19,TGCGCCACGTGTTGAG,0.07
20,AATGTCACGTGTTTAT,0.16
21,GCTGGCACGTGTGCTG,0.02
22,TTCGACACGTGTGTTT,0.04
23,TCATGCACGTGGGGTT,-0.11
